Experiment [1] has as its target ABI1-Myc (Arabidopsis thaliana) (UniProt P49597). The experiment in a line: co-IP; Arabidopsis protoplasts co-transfected with Myc- and Flag-tagged constructs, 14-16 h; lysate (10 mM HEPES pH 7.5, 100 mM NaCl, 1 mM EDTA, 10% glycerol, 0.5% Triton X-100) on anti-c-Myc agarose 2 h at 4 °C; blots with anti-Flag and anti-Myc.
Experiment [2] concerns the target native ABI1 (Arabidopsis thaliana (endogenous in plants)) (UniProt P49597). The experiment in a line: co-IP; native ABI1 and PUB13-Flag from transgenic plants expressing Pro35S:PUB13-Flag (Supplementary Fig. 5).
The target of experiment [3] is ABI2-Myc (Arabidopsis thaliana) (UniProt O04719). The experiment in a line: co-IP; Arabidopsis protoplasts co-transfected with Myc- and Flag-tagged constructs, 14-16 h; lysate (10 mM HEPES pH 7.5, 100 mM NaCl, 1 mM EDTA, 10% glycerol, 0.5% Triton X-100) on anti-c-Myc agarose 2 h at 4 °C; blots with anti-Flag and anti-Myc.
Experiment [4] concerns the target T1, AHG1 (Arabidopsis thaliana) (UniProt Q9FLI3).
T1 sequence: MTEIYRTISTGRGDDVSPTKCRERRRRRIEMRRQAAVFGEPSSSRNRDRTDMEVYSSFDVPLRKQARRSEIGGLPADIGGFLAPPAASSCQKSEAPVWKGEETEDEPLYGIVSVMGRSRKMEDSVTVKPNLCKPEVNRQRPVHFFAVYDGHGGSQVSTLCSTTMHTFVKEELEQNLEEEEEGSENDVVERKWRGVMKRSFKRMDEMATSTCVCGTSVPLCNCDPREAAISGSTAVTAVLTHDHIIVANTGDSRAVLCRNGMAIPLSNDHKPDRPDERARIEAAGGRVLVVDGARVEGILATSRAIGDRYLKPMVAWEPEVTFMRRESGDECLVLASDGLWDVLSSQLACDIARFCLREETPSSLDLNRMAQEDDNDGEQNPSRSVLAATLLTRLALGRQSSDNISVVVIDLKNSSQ
Described as above.

Protein sequences, listed by entry. Tags and fused reporters are not part of them.
UniProt P49597: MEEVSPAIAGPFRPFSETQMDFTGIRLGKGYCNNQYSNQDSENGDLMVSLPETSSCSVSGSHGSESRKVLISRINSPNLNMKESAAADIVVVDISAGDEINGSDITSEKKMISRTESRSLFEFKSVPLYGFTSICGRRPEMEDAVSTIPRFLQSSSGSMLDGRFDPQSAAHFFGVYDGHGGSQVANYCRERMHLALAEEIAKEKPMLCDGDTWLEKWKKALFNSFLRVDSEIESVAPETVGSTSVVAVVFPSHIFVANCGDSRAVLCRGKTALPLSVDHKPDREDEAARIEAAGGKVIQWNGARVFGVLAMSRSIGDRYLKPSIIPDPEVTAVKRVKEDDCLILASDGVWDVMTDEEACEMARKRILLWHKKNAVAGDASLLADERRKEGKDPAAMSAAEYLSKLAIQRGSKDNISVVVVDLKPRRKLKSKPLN
UniProt O04719: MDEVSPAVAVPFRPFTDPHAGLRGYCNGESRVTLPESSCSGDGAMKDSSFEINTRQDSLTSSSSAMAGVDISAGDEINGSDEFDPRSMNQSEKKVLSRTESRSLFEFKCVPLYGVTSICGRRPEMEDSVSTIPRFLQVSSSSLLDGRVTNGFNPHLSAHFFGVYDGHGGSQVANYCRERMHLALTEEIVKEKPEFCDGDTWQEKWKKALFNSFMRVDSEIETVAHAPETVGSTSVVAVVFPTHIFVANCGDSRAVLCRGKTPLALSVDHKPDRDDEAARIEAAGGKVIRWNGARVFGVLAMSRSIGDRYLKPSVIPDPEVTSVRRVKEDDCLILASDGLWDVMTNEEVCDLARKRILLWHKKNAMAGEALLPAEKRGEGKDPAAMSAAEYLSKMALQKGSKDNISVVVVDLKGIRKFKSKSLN

Experiment [5] concerns the target T2, AHG3 (Arabidopsis thaliana) (UniProt P49598).
T2 sequence: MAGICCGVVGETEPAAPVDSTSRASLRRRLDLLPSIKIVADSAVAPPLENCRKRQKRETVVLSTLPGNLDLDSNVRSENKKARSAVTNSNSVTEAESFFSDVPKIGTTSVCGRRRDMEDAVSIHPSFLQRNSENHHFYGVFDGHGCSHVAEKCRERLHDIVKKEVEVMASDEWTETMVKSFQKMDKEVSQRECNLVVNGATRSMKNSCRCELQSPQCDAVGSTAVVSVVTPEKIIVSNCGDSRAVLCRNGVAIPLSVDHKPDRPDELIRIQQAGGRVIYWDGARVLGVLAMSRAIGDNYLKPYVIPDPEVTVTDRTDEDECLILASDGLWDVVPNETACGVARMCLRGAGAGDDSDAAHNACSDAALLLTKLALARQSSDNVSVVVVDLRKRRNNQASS
The experiment is described as above.

The target of experiment [6] is T3, HAB2 (Arabidopsis thaliana) (UniProt Q9LNP9).
T3 sequence: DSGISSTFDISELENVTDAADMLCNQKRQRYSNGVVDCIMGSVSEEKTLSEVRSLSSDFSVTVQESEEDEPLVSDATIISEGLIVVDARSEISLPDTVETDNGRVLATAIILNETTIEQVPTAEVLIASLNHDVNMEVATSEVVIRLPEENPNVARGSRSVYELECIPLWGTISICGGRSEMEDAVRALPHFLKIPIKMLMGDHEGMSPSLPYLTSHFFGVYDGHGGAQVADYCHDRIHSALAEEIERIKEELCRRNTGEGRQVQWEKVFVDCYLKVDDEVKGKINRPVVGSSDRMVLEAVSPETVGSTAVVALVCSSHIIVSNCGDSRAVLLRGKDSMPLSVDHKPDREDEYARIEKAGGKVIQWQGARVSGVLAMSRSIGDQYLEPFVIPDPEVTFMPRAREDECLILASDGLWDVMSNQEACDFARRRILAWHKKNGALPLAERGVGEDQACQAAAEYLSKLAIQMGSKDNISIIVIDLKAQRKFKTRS
The description is as above.

In experiment [7] the target is cLUC-ABI1 (Arabidopsis thaliana) (UniProt P49597). The experiment in a line: split reporter; firefly luciferase complementation imaging (LCI); cLUC and nLUC fusions co-expressed in Nicotiana benthamiana leaves by Agrobacterium infiltration, imaged after 3 days with 1 mM luciferin.

Among the data in article PMC4667695 are binding values, retold here.

These are yes or no findings as the source states them, for the method shown. In cells and extracts the contact can be indirect. Some entries that bind do so weakly or less than the wild type. Sequences can lack the tags named with a protein.

B1: PUB9-Flag (enzyme, UniProt Q9SRT0 1-460)
chain: MAKTGVFDSDPTAIAKAKELKREMKKLLIKIDDEDDLGVQTIDQLQDALSALREATMRKMAKSSSLEMLETVSCPEEFRCPLSNELMRDPVVLASGQTYDKLFIQKWLSSGNRTCPKTQQVLPHTALTPNLLIREMISKWCKKNGLETKSQYHPNLVNEDETVTRSDREIFNSLLCKVSSSNLQDQKSAAKELRLLTRKGTEFRALFGESPDEITRLVNPLLHGSNPDEKLQEDVVTTLLNISIHDDSNKKLVCENPNVIPLLIDALRRGTVATRSNAAAAIFTLSALDSNKVLIGKSGILKPLIDLLEEGNPLAIKDVAAAIFTLCIAHENRSRAVRDGAVRVLGKKISNGLYVDELLAILAMLVTHWKAVEELGELGGVSWLLKITRESECKRNKENAIVILHTICFSDRTKWKEIKEEENAHGTITKLSREGTSRAQRKANGILDRLRKAMNLTHTA
For the molecule B1, in experiment [1], the binding entry is “no binding”.

B2: PUB13-Flag (enzyme, UniProt Q9SNC6 1-660)
chain: MEEEKASAAQSLIDVVNEIAAISDYRITVKKLCYNLARRLKLLVPMFEEIRESNEPISEDTLKTLMNLKEAMCSAKDYLKFCSQGSKIYLVMEREQVTSKLMEVSVKLEQSLSQIPYEELDISDEVREQVELVLSQFRRAKGRVDVSDDELYEDLQSLCNKSSDVDAYQPVLERVAKKLHLMEIPDLAQESVALHEMVASSGGDVGENIEEMAMVLKMIKDFVQTEDDNGEEQKVGVNSRSNGQTSTAASQKIPVIPDDFRCPISLEMMRDPVIVSSGQTYERTCIEKWIEGGHSTCPKTQQALTSTTLTPNYVLRSLIAQWCEANDIEPPKPPSSLRPRKVSSFSSPAEANKIEDLMWRLAYGNPEDQRSAAGEIRLLAKRNADNRVAIAEAGAIPLLVGLLSTPDSRIQEHSVTALLNLSICENNKGAIVSAGAIPGIVQVLKKGSMEARENAAATLFSLSVIDENKVTIGALGAIPPLVVLLNEGTQRGKKDAATALFNLCIYQGNKGKAIRAGVIPTLTRLLTEPGSGMVDEALAILAILSSHPEGKAIIGSSDAVPSLVEFIRTGSPRNRENAAAVLVHLCSGDPQHLVEAQKLGLMGPLIDLAGNGTDRGKRKAAQLLERISRLAEQQKETAVSQPEEEAEPTHPESTTEAADT
B2: the binding entry is reported as “binds” in experiment [2]; “binds” in experiment [1]; “no binding” in experiment [3]; “no binding” in experiment [4]; “no binding” in experiment [5]; “no binding” in experiment [6].

B3: PUB13-nLUC (enzyme, UniProt Q9SNC6 1-660)
chain: MEEEKASAAQSLIDVVNEIAAISDYRITVKKLCYNLARRLKLLVPMFEEIRESNEPISEDTLKTLMNLKEAMCSAKDYLKFCSQGSKIYLVMEREQVTSKLMEVSVKLEQSLSQIPYEELDISDEVREQVELVLSQFRRAKGRVDVSDDELYEDLQSLCNKSSDVDAYQPVLERVAKKLHLMEIPDLAQESVALHEMVASSGGDVGENIEEMAMVLKMIKDFVQTEDDNGEEQKVGVNSRSNGQTSTAASQKIPVIPDDFRCPISLEMMRDPVIVSSGQTYERTCIEKWIEGGHSTCPKTQQALTSTTLTPNYVLRSLIAQWCEANDIEPPKPPSSLRPRKVSSFSSPAEANKIEDLMWRLAYGNPEDQRSAAGEIRLLAKRNADNRVAIAEAGAIPLLVGLLSTPDSRIQEHSVTALLNLSICENNKGAIVSAGAIPGIVQVLKKGSMEARENAAATLFSLSVIDENKVTIGALGAIPPLVVLLNEGTQRGKKDAATALFNLCIYQGNKGKAIRAGVIPTLTRLLTEPGSGMVDEALAILAILSSHPEGKAIIGSSDAVPSLVEFIRTGSPRNRENAAAVLVHLCSGDPQHLVEAQKLGLMGPLIDLAGNGTDRGKRKAAQLLERISRLAEQQKETAVSQPEEEAEPTHPESTTEAADT
As for B3, the binding entry in experiment [7] is on record as “binds”.

B4: PUB12-nLUC (enzyme, UniProt Q9ZV31 1-654)
chain: MAKSEKHKLAQTLIDSINEIASISDSVTPMKKHCANLSRRLSLLLPMLEEIRDNQESSSEVVNALLSVKQSLLHAKDLLSFVSHVSKIYLVLERDQVMVKFQKVTSLLEQALSIIPYENLEISDELKEQVELVLVQLRRSLGKRGGDVYDDELYKDVLSLYSGRGSVMESDMVRRVAEKLQLMTITDLTQESLALLDMVSSSGGDDPGESFEKMSMVLKKIKDFVQTYNPNLDDAPLRLKSSLPKSRDDDRDMLIPPEEFRCPISLELMTDPVIVSSGQTYERECIKKWLEGGHLTCPKTQETLTSDIMTPNYVLRSLIAQWCESNGIEPPKRPNISQPSSKASSSSSAPDDEHNKIEELLLKLTSQQPEDRRSAAGEIRLLAKQNNHNRVAIAASGAIPLLVNLLTISNDSRTQEHAVTSILNLSICQENKGKIVYSSGAVPGIVHVLQKGSMEARENAAATLFSLSVIDENKVTIGAAGAIPPLVTLLSEGSQRGKKDAATALFNLCIFQGNKGKAVRAGLVPVLMRLLTEPESGMVDESLSILAILSSHPDGKSEVGAADAVPVLVDFIRSGSPRNKENSAAVLVHLCSWNQQHLIEAQKLGIMDLLIEMAENGTDRGKRKAAQLLNRFSRFNDQQKQHSGLGLEDQISLI
For B4, the binding result in experiment [7] is recorded as “binds”.

B5: PUB12-Flag (enzyme, UniProt Q9ZV31 1-654)
chain: MAKSEKHKLAQTLIDSINEIASISDSVTPMKKHCANLSRRLSLLLPMLEEIRDNQESSSEVVNALLSVKQSLLHAKDLLSFVSHVSKIYLVLERDQVMVKFQKVTSLLEQALSIIPYENLEISDELKEQVELVLVQLRRSLGKRGGDVYDDELYKDVLSLYSGRGSVMESDMVRRVAEKLQLMTITDLTQESLALLDMVSSSGGDDPGESFEKMSMVLKKIKDFVQTYNPNLDDAPLRLKSSLPKSRDDDRDMLIPPEEFRCPISLELMTDPVIVSSGQTYERECIKKWLEGGHLTCPKTQETLTSDIMTPNYVLRSLIAQWCESNGIEPPKRPNISQPSSKASSSSSAPDDEHNKIEELLLKLTSQQPEDRRSAAGEIRLLAKQNNHNRVAIAASGAIPLLVNLLTISNDSRTQEHAVTSILNLSICQENKGKIVYSSGAVPGIVHVLQKGSMEARENAAATLFSLSVIDENKVTIGAAGAIPPLVTLLSEGSQRGKKDAATALFNLCIFQGNKGKAVRAGLVPVLMRLLTEPESGMVDESLSILAILSSHPDGKSEVGAADAVPVLVDFIRSGSPRNKENSAAVLVHLCSWNQQHLIEAQKLGIMDLLIEMAENGTDRGKRKAAQLLNRFSRFNDQQKQHSGLGLEDQISLI
On to B5, for which the binding entry in experiment [1] is listed as “binds”; in experiment [3], “no binding”; in experiment [4], “no binding”; in experiment [5] it was “no binding”; in experiment [6], “no binding”.
